One molecule from patent US20210147536A1 (MAB VENTURE BIOPHARM, published 2021) can be followed below.

This assay deals with T1, human LAG-3 on the cell surface (human, UniProt P18627 23-525).
T1 construct: whole, on cells; also called cells expressing the human LAG-3
T1 sequence (looked up): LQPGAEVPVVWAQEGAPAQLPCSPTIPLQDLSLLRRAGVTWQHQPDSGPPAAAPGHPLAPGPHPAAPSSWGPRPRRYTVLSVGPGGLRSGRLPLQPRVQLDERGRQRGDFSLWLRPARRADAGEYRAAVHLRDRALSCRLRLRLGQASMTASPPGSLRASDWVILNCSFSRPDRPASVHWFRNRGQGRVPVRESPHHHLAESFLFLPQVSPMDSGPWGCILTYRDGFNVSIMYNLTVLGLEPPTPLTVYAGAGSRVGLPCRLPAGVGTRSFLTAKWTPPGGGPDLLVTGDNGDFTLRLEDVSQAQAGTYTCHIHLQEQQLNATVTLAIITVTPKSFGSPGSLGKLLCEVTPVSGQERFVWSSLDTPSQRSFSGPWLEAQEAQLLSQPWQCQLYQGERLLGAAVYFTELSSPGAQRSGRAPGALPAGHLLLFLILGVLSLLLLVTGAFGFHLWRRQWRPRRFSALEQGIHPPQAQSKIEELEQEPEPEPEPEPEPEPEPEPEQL
The assay can be described thus: flow cytometry, soluble scFv supernatant on activated human CD4+ T cells, anti-His-PE. (A flow cytometer gives signals particle by particle.)

B1: scFv single chain antibody 11471 (scFv)
scFv: RVRLQESGPGLVKPSQTLSLTCTVSGGSISSSNWWSWVRQPPGKGLEWIGEIYHSGSTNYNPSLKSRVTISVDKSKNQFSLKLSSVTAADTAVYYCARDRAIRDAFDIWGQGTTVTVSSGGGGSGGGGSGGGGSGGGGAS[about 100 residues omitted]LFGGGTKLEIK
notes: From phagemid pCLS1.0, which adds a C-terminal Myc-His tag
Turning to B1, the binding result is listed as “binds”.
